From patent US20220411471A1, “CELL-PERMEABLE CYCLIC PEPTIDES AND USES THEREOF” (Unnatural Products Inc., priority 2019, published 2022)
Not every detail of the peptide structures is certain; ends, links or a residue may be inferred. Non-standard residues stand in square brackets, D forms with d. Residues, ends and D or L forms follow the SMILES beside them. NEtPhe(4-F) = CCN[C@@H](Cc1ccc(F)cc1)C(=O)O; Ala(4-thiazolyl) = N[C@@H](Cc1cscn1)C(=O)O; NMePhe(4-F) = CN[C@@H](Cc1ccc(F)cc1)C(=O)O; Phe(4-Cl) = N[C@@H](Cc1ccc(Cl)cc1)C(=O)O; Phe(4-F) = N[C@@H](Cc1ccc(F)cc1)C(=O)O; NMeF = CN[C@@H](Cc1ccccc1)C(=O)O; Tle = CC(C)(C)[C@H](N)C(=O)O; NMeV = CN[C@H](C(=O)O)C(C)C; Pip = O=C(O)[C@@H]1CCCCN1; hSer = N[C@@H](CCO)C(=O)O; NMeA = CN[C@@H](C)C(=O)O; dNMeA = CN[C@H](C)C(=O)O; Abu = CC[C@H](N)C(=O)O; Nme = COCCNCC(=O)O

Each compound was assayed on MOLM-13 cells (assay: Cellular fluorescence assay (resazurin, 72 hours)).
Assay type: cell-based
Procedure: MOLM-13 cells were grown in suspension in T75 flasks in RPMI medium with 10% fetal bovine serum (FBS) at 37° C. with 5% CO2. 40 μL of MOLM-13 cells were plated into columns 1-22 of black, clear bottom, 384 well plates at a density of 1,500 cells per well in PRMI with 10% FBS. Columns 23 and 24 were filled with 40 μL of media as a positive control. 100 nL of compounds dissolved in DMSO were pin transferred into columns 3-22 of the 384 well plate. Columns 1 and 2 served as negative control wells. Plates were incubated for 72 hours at 37° C. with 5% CO2. After incubation, the cells were given 10 μL of 2 mM Resazurin in RPMI with 10% FBS and incubated for 3 hours. The fluorescence intensity was read on a Molecular Devices SpectraMax i3x plate reader (Excitation wavelength=535 nm, Emission wavelength=585 nm).

IC50	SMILES
100 to 150 nM	COCC[C@@H]1NC(=O)[C@H]2CCCN2C(=O)[C@H](Cc2ccc(F)cc2)N(C)C(=O)[C@H](Cc2ccc(Cl)cc2)NC(=O)[C@@H]2CCCCN2C(=O)[C@H](Cc2ccc(F)cc2)NC(=O)CN(CCOC)C(=O)[C@@H](C)N(C)C(=O)[C@H](Cc2cscn2)NC(=O)[C@H](C)N(C)C1=O [Compound 46, COCC[C@@H]1NC(=O)[C@H]2CCCN2C(=O)[C@H](Cc2ccc(F)cc2)N(C)C(=O)[C@H](Cc2ccc(Cl)cc2)NC(=O)[C@@H]2CCCCN2C(=O)[C@H](Cc2ccc(F)cc2)NC(=O)CN(CCOC)C(=O)[C@@H](C)N(C)C(=O)[C@H](Cc2cscn2)NC(=O)[C@H](C)N(C)C1=O] (cyclo([Ala(4-thiazolyl)][dNMeA][Nme][Phe(4-F)][Pip][Phe(4-Cl)][NMePhe(4-F)][dP][hSer](Me)[NMeA]))
50 to 100 nM	COCC[C@@H]1NC(=O)[C@H]2CCCN2C(=O)[C@H](Cc2ccccc2)N(C)C(=O)[C@H](Cc2ccc(Cl)cc2)NC(=O)[C@H](C)N(C)C(=O)[C@H](Cc2ccc(F)cc2)NC(=O)[C@H](C)N(C)C(=O)[C@@H](C)N(C)C(=O)[C@H](Cc2cscn2)NC(=O)[C@H](C)N(C)C1=O [Compound 34, COCC[C@@H]1NC(=O)[C@H]2CCCN2C(=O)[C@H](CC2=CC=CC=C2)N(C)C(=O)[C@H](CC2=CC=C(Cl)C=C2)NC(=O)[C@H](C)N(C)C(=O)[C@H](CC2=CC=C(F)C=C2)NC(=O)[C@H](C)N(C)C(=O)[C@@H](C)N(C)C(=O)C@H](CC2=CSC=N2)NC(=O)[C@H](C)N(C)C1=O] (cyclo([Ala(4-thiazolyl)][dNMeA][NMeA][Phe(4-F)][NMeA][Phe(4-Cl)][NMeF][dP][hSer](Me)[NMeA]))
> 150 nM	COCC[C@@H]1NC(=O)[C@H]2CCCN2C(=O)[C@H](Cc2ccccc2)N(C)C(=O)[C@H](Cc2ccc(Cl)cc2)NC(=O)[C@H](C(C)C)N(C)C(=O)[C@H](Cc2ccc(F)cc2)NC(=O)CN(CCOC)C(=O)[C@@H](C)N(C)C(=O)[C@H](Cc2cscn2)NC(=O)[C@H](C)N(C)C1=O [Compound 43, COCC[C@@H]1NC(=O)[C@H]2CCCN2C(=O)[C@H](CC2=CC=CC=C2)N(C)C(=O)[C@H](CC2=CC=C(Cl)C=C2)NC(=O)[C@H](C(C)C)N(C)C(=O)[C@H](CC2=CC=C(F)C=C2)NC(=O)CN(CCOC)C(=O)[C@@H](C)N(C)C(=O)[C@H](CC2=CSC=N2)NC(=O)[C@H](C)N(C)C1=O] (cyclo([Ala(4-thiazolyl)][dNMeA][Nme][Phe(4-F)][NMeV][Phe(4-Cl)][NMeF][dP][hSer](Me)[NMeA]))
> 150 nM	CC[C@@H]1NC(=O)[C@H](Cc2ccc(F)cc2)NC(=O)CN(CCOC)C(=O)[C@@H](C)N(C)C(=O)[C@H](Cc2cscn2)NC(=O)[C@H](C)N(C)C(=O)[C@H](CCOC)NC(=O)[C@H]2CCCN2C(=O)[C@H](Cc2ccccc2)N(C)C(=O)[C@H](Cc2ccc(Cl)cc2)NC1=O [Compound 42, CC[C@@H]1NC(=O)[C@H](CC2=CC=C(F)C=C2)NC(=O)CN(CCOC)C(=O)[C@@H](C)N(C)C(=O)[C@H](CC2=CSC=N2)NC(=O)[C@H](C)N(C)C(=O)[C@H](CCOC)NC(=O)[C@H]2CCCN2C(=O)[C@H](CC2=CC=CC=C2)N(C)C(=O)[C@H](CC2=CC=C(Cl)C=C2)NC1=O] (cyclo([Abu][Phe(4-Cl)][NMeF][dP][hSer](Me)[NMeA][Ala(4-thiazolyl)][dNMeA][Nme][Phe(4-F)]))
50 to 100 nM	COCC[C@@H]1NC(=O)[C@H]2CCCN2C(=O)[C@H](Cc2ccc(F)cc2)N(C)C(=O)[C@H](Cc2ccc(Cl)cc2)NC(=O)[C@H](C(C)(C)C)NC(=O)[C@H](Cc2ccc(F)cc2)NC(=O)CN(CCOC)C(=O)[C@@H](C)N(C)C(=O)[C@H](Cc2cscn2)NC(=O)[C@H](C)N(C)C1=O [Compound 37, COCC[C@@H]1NC(=O)[C@H]2CCCN2C(=O)[C@H](Cc2ccc(F)cc2)N(C)C(=O)[C@H](CC2=CC=C(Cl)C=C2)NC(=O)[C@@H](NC(=O)[C@H](Cc2ccc(F)cc2)NC(=O)CN(CCOC)C(=O)[C@@H](C)N(C)C(=O)[C@H](CC2=CSC=N2)NC(=O)[C@H](C)N(C)C1=O)C(C)(C)C] (cyclo([Ala(4-thiazolyl)][dNMeA][Nme][Phe(4-F)][Tle][Phe(4-Cl)][NMePhe(4-F)][dP][hSer](Me)[NMeA]))
50 to 100 nM	COCC[C@@H]1NC(=O)[C@H]2CCCN2C(=O)[C@H](Cc2ccccc2)N(C)C(=O)[C@H](Cc2ccc(Cl)cc2)NC(=O)[C@H](C(C)(C)C)NC(=O)[C@H](Cc2ccc(F)cc2)NC(=O)[C@H](C)N(C)C(=O)[C@@H](C)N(C)C(=O)[C@H](Cc2cscn2)NC(=O)[C@H](C)N(C)C1=O [Compound 36, COCC[C@@H]1NC(=O)[C@H]2CCCN2C(=O)[C@H](Cc2ccccc2)N(C)C(=O)[C@H](Cc2ccc(Cl)cc2)NC(=O)[C@@H](NC(=O)[C@H](Cc2ccc(F)cc2)NC(=O)[C@H](C)N(C)C(=O)[C@@H](C)N(C)C(=O)[C@H](CC2=CSC=N2)NC(=O)[C@H](C)N(C)C1=O)C(C)(C)C] (cyclo([Ala(4-thiazolyl)][dNMeA][NMeA][Phe(4-F)][Tle][Phe(4-Cl)][NMeF][dP][hSer](Me)[NMeA]))

The remaining lines, values behind:

SMILES	IC50
COCC[C@@H]1NC(=O)[C@H]2CCCN2C(=O)[C@H](Cc2ccccc2)N(C)C(=O)[C@H](Cc2ccc(Cl)cc2)NC(=O)[C@H](C(C)C)NC(=O)[C@H](Cc2ccc(F)cc2)NC(=O)CN(CCOC)C(=O)[C@@H](C)N(C)C(=O)[C@H](Cc2cscn2)NC(=O)[C@H](C)N(C)C1=O [Compound 41, COCC[C@@H]1NC(=O)[C@H]2CCCN2C(=O)[C@H](CC2=CC=CC=C2)N(C)C(=O)[C@H](CC2=CC=C(Cl)C=C2)NC(=O)[C@@H](NC(=O)[C@H](CC2=CC=C(F)C=C2)NC(=O)CN(CCOC)C(=O)[C@@H](C)N(C)C(=O)[C@H](CC2=CSC=N2)NC(=O)[C@H](C)N(C)C1=O)C(C)C] (cyclo([Ala(4-thiazolyl)][dNMeA][Nme][Phe(4-F)]V[Phe(4-Cl)][NMeF][dP][hSer](Me)[NMeA]))	100 to 150 nM
COCC[C@@H]1NC(=O)[C@H]2CCCN2C(=O)[C@H](Cc2ccccc2)N(C)C(=O)[C@H](Cc2ccc(Cl)cc2)NC(=O)[C@H](C(C)(C)C)NC(=O)[C@H](Cc2ccc(F)cc2)NC(=O)CN(CCOC)C(=O)[C@@H](C)N(C)C(=O)[C@H](Cc2ccc(O)cc2)NC(=O)[C@H](C)N(C)C1=O [Compound 32, [H]Oc1ccc(C[C@@H]2NC(=O)[C@H](C)N(C)C(=O)[C@H](CCOC)NC(=O)[C@H]3CCCN3C(=O)[C@H](Cc3ccccc3)N(C)C(=O)[C@H](Cc3ccc(Cl)cc3)NC(=O)[C@@H](NC(=O)[C@H](Cc3ccc(F)cc3)NC(=O)CN(CCOC)C(=O)[C@@H](C)N(C)C2=O)C(C)(C)C)cc1] (cyclo([NMeA]Y[dNMeA][Nme][Phe(4-F)][Tle][Phe(4-Cl)][NMeF][dP][hSer](Me)))	50 to 100 nM
COCC[C@@H]1NC(=O)[C@H]2CCCN2C(=O)[C@H](Cc2ccccc2)N(C)C(=O)[C@H](Cc2ccc(Cl)cc2)NC(=O)[C@H](C(C)(C)C)NC(=O)[C@H](Cc2ccc(F)cc2)NC(=O)CN(CCOC)C(=O)[C@@H](C)N(C)C(=O)[C@H](Cc2cscn2)NC(=O)[C@H](C)N(C)C1=O [Compound 35, COCC[C@@H]1NC(=O)[C@H]2CCCN2C(=O)[C@H](CC2=CC=CC=C2)N(C)C(=O)[C@H](CC2=CC=C(Cl)C=C2)NC(=O)[C@@H](NC(=O)[C@H](CC2=CC=C(F)C=C2)NC(=O)CN(CCOC)C(=O)[C@@H](C)N(C)C(=O)[C@H](CC2=CSC=N2)NC(=O)[C@H](C)N(C)C1=O)C(C)(C)C] (cyclo([Ala(4-thiazolyl)][dNMeA][Nme][Phe(4-F)][Tle][Phe(4-Cl)][NMeF][dP][hSer](Me)[NMeA]))	100 to 150 nM
CCN1C(=O)[C@H](Cc2ccc(Cl)cc2)NC(=O)[C@H](C(C)(C)C)NC(=O)[C@H](Cc2ccc(F)cc2)NC(=O)CN(CCOC)C(=O)[C@@H](C)N(C)C(=O)[C@H](Cc2cscn2)NC(=O)[C@H](C)N(C)C(=O)[C@H](CCOC)NC(=O)[C@H]2CCCN2C(=O)[C@@H]1Cc1ccc(F)cc1 [Compound 44, CCN1[C@@H](Cc2ccc(F)cc2)C(=O)N2CCC[C@@H]2C(=O)N[C@@H](CCOC)C(=O)N(C)[C@@H](C)C(=O)N[C@@H](Cc2cscn2)C(=O)N(C)[C@H](C)C(=O)N(CCOC)CC(=O)N[C@@H](Cc2ccc(F)cc2)C(=O)N[C@H](C(=O)N[C@@H](Cc2ccc(Cl)cc2)C1=O)C(C)(C)C] (cyclo([Ala(4-thiazolyl)][dNMeA][Nme][Phe(4-F)][Tle][Phe(4-Cl)][NEtPhe(4-F)][dP][hSer](Me)[NMeA]))	100 to 150 nM
COCC[C@@H]1NC(=O)[C@H]2CCCN2C(=O)[C@H](Cc2ccc(F)cc2)N(C)C(=O)[C@H](Cc2ccc(Cl)cc2)NC(=O)[C@@H]2CCCN2C(=O)[C@H](Cc2ccc(F)cc2)NC(=O)CN(CCOC)C(=O)[C@@H](C)N(C)C(=O)[C@H](Cc2cscn2)NC(=O)[C@H](C)N(C)C1=O [Compound 47, COCC[C@@H]1NC([C@H]2CCCN2C([C@@H](N(C([C@@H](NC([C@@H]3CCCN3C([C@@H](NC(CN(C([C@H](N(C([C@@H](NC([C@@H](N(C1=O)C)C)=O)Cc4ncsc4)=O)C)C)=O)CCOC)=O)Cc5ccc(F)cc5)=O)=O)Cc6ccc(Cl)cc6)=O)C)Cc7ccc(F)cc7)=O)=O] (cyclo([Ala(4-thiazolyl)][dNMeA][Nme][Phe(4-F)]P[Phe(4-Cl)][NMePhe(4-F)][dP][hSer](Me)[NMeA]))	100 to 150 nM
COCC[C@@H]1NC(=O)[C@H]2CCCN2C(=O)[C@H](Cc2ccc(F)cc2)N(C)C(=O)[C@H](Cc2ccc(Cl)cc2)NC(=O)[C@H](C(C)(C)C)NC(=O)[C@H](Cc2ccc(F)cc2)NC(=O)[C@H](C)N(C)C(=O)[C@@H](C)N(C)C(=O)[C@H](Cc2cscn2)NC(=O)[C@H](C)N(C)C1=O [Compound 38, COCC[C@@H]1NC(=O)[C@H]2CCCN2C(=O)[C@H](Cc2ccc(F)cc2)N(C)C(=O)[C@H](CC2=CC=C(Cl)C=C2)NC(=O)[C@@H](NC(=O)[C@H](Cc2ccc(F)cc2)NC(=O)[C@H](C)N(C)C(=O)[C@@H](C)N(C)C(=O)[C@H](CC2=CSC=N2)NC(=O)[C@H](C)N(C)C1=O)C(C)(C)C] (cyclo([Ala(4-thiazolyl)][dNMeA][NMeA][Phe(4-F)][Tle][Phe(4-Cl)][NMePhe(4-F)][dP][hSer](Me)[NMeA]))	50 to 100 nM
